PubChem BioAssay AID1508623 (National Center for Advancing Translational Sciences (NCATS), 2021)
Among all 48,000 compounds or so, about 450 (0.94%) were called active. Inconclusive results (about 19%) are left out. Calls follow the shape of the dose curve; as a rule, active = well fitted inhibition curve with a large enough effect; inconclusive = small, poorly fitted or top-dose-only effect; inactive = no such curve, though single readings can be large or run the other way. The list shows a part of the results.

assay: Primary qHTS for Identification of Small Molecule Inhibitors of Huntingtin Promoter Activity; conditions: HEK293 HTT promoter firefly luciferase reporter (activity 0% = vehicle and -100% = no light), 24 h; series mostly up to 57.5 µM; activity change, negative = inhibition: at the top concentration; also: nearly all actives have a fitted effect of over 50% in size
How it was run: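 Firefly luciferase readout (Dual-Glo, 10 min RT) after 24 h, 37 °C compound exposure (final up to 57.5 uM) of HEK293 reporter cells cultured 24 h beforehand; PTC124 at 50 uM final as control inhibitor; activity scaled vehicle 0%, zero RLU -100%.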

Activity change, negative = inhibition, inactive:
Cc1ccc2c(=O)cc(C(=O)Nc3ccc(S(=O)(=O)N4CCCC(C)C4)cc3)oc2c1C (stereo unspecified) 11.4%
COc1ccc(-c2cn3c(n2)sc2cc(C(=O)NCc4ccccc4)ccc23)cc1 -18.4%
COc1ccc(OC)c(C2CC(=O)Nc3ccc4ccccc4c32)c1 (stereo unspecified) 3.91%
CCN(C(=O)CCS(=O)(=O)c1cc(Br)cc2c1N(C(=O)C1CC1)CC2)c1cccc(C)c1 -5.87%
COc1ccccc1C1=Nn2c(nc3sc(C(=O)Nc4ccccc4Cl)c(C)c3c2=O)SC1 -23%
Cc1ccc(C)c(C(=O)N2CCC(c3nc4c(nnn4Cc4ccccc4)c(=O)[nH]3)CC2)c1 -28.2%
CCOCCCn1c(SCC(=O)Nc2ccccc2OC)nc2c(oc3ccccc32)c1=O -23.8%
CC(NC(=O)c1c(O)nc2ccccn2c1=O)c1ccccc1 (stereo unspecified) -13.7%
S=c1[nH]c2ccccc2s1 5.47% [at 116 µM]
CCOc1ccccc1N1CC(c2nc3ccccc3n2CCCCOc2ccccc2)CC1=O (stereo unspecified) -4.26%
COc1ccc(CC(=O)NCc2ccc3c(c2)CCN3C(C)=O)cc1OC -40.2%
CCN(CC)S(=O)(=O)c1ccc2c(c1)c(=O)c(C(=O)NCc1ccc(Cl)cc1)cn2C -1.86%
CCOC(=O)C1CCN(C(=O)c2ccc3c(c2)sc2nc(-c4ccccc4)cn23)CC1 -18.3%
COc1cccc(CNC(=O)C2Cc3cc(S(=O)(=O)N4CCCCCC4)ccc3N2C(C)=O)c1 (stereo unspecified) 1.54%
Nc1c(C(=O)Nc2ccc(Cl)c(C(F)(F)F)c2)sc2nc(-c3ccncc3)ccc12 -24.1%
COc1ccc(C(=O)COC(=O)c2cc(-c3ccccc3)nc3c(C)cccc23)cc1 -3.07% [at 11.5 µM]
O=C1CCc2cc(S(=O)(=O)NCc3ccc(F)cc3)cc3c2N1CC3 -18.9%
CCC(=O)N1CCc2cc(Br)cc(S(=O)(=O)N3CCCC(C(=O)NCc4cccc(OC)c4)C3)c21 (stereo unspecified) -7.62%
Cc1nc2c(-c3ccccc3)c(C)nn2c(C)c1CCC(=O)N1CCN(c2ccccc2)CC1 -7.65%
CC(=O)N1CCCc2ccc(NS(=O)(=O)c3ccc(C)c(C)c3)cc21 3.67%
Cn1nc(C(=O)N2CCN(c3cccc(Cl)c3)CC2)c2c1-c1ccccc1S(=O)(=O)C2 -17.8%
CCc1cc2c(cc3c(=O)n(CC(=O)N4CCC(C)CC4)nc(CC)n32)s1 -9.64%
NCCCNCCSP(=O)(O)O 3.76% [at 11.5 µM]
CCCS(=O)(=O)c1ncc(Cl)c(C(=O)Nc2c(C(=O)c3ccccc3)oc3ccccc23)n1 -8.5%
CCc1ccc(-n2c(=O)c3ccc(C(=O)NCCc4ccccc4)cc3n(CC(N)=O)c2=O)cc1 -23.4%
CCS(=O)(=O)N1CCc2cc(C(=O)Nc3ccc(C)c(Cl)c3)ccc21 -7.26%
